The results in this text go back to a collection of fitness landscapes (doi:10.1016/j.celrep.2020.107928).

B1: Caulobacter ParB omega fusion; a variant is named by its letters at X, in order, B8GW30 (parent)
chain: MESVVVGEPGMSEGRRGLGRGLSALLGEVDAAPAQAPGEQLGGSREAPIEILQRNPDQPRRTFREEDLEDLSNSIREKGVLQPILVRPSPDTAGEYQIVAGERAWRAAQRAGLKTVPIMVRELDDLAVLEIGIIENVQRADLNVLEEALSYKVLMEKFERTQENIAQTIGKSXSHVANXMRLLXLPDEVQSYLVSGELTAXHARAIAAAADPVALAKQIIEGGLSVRETEALARKAPNLSAGKSKGGRPPRVKDTDTQALESDLSSVLGLDVSIDHRGSTGTLTITYATLEQLDDLCNRLTRGI

The full ranking holds about 81,000 sequences; the median of “one-hybrid fitness for binding parS DNA” is about -0.17, and the highest 2% start at about 0.51. Some of the results follow.

The variants in the experiment derive from B1. The experiment can be described thus: one-hybrid fitness for binding parS DNA (scaled: cognate 1, non-cognate 0); higher = stronger binding. The settings on record: with parS DNA site. The gist of the method: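 Fitness here means the log change in variant-to-wild-type read ratio between plasmids sequenced before and after selection. That scale was set so cognate equals 1 and non-cognate equals 0. The selection was a bacterial one-hybrid screen of Caulobacter ParB libraries, four specificity codons randomised, in E. coli USO carrying a HIS3 reporter with the site 19 bp from the promoter, grown 48 hours at 37°C on M9-minus-histidine with 0.1 mM IPTG and 5 mM 3-AT.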
Turning to RAAM, the “one-hybrid fitness for binding parS DNA” value was found to be 0.345.
Consider SSAP, for which the “one-hybrid fitness for binding parS DNA” value was no more than 0.2.
As for LTRR, the “one-hybrid fitness for binding parS DNA” value is no more than 0.2.
With QKLN, the “one-hybrid fitness for binding parS DNA” value was no more than 0.2.
Take TREN: the “one-hybrid fitness for binding parS DNA” value is no more than 0.2.
Take VTCR: the “one-hybrid fitness for binding parS DNA” value is no more than 0.2.
Turning to SALN, the “one-hybrid fitness for binding parS DNA” value is no more than 0.2.
Regarding RLIN, the “one-hybrid fitness for binding parS DNA” value is 0.38.
With QFGM, the “one-hybrid fitness for binding parS DNA” value was no more than 0.2.
The result for PRIN reads no more than 0.2; that for YSGW, no more than 0.2.
As for FRES, the “one-hybrid fitness for binding parS DNA” value is no more than 0.2.
Turning to WLIS, the “one-hybrid fitness for binding parS DNA” value was no more than 0.2.
Consider EVHG, for which the “one-hybrid fitness for binding parS DNA” value was no more than 0.2.
As for CYPV, the “one-hybrid fitness for binding parS DNA” value is no more than 0.2.
As to ESQN, the “one-hybrid fitness for binding parS DNA” value was no more than 0.2.
ANKE: the “one-hybrid fitness for binding parS DNA” value is no more than 0.2.
To DMEF belongs no more than 0.2; to WDRY, no more than 0.2; to MSWG, no more than 0.2.
Turning to YAIG, the “one-hybrid fitness for binding parS DNA” value was no more than 0.2.
With WREF, the “one-hybrid fitness for binding parS DNA” value is no more than 0.2.
The result for RFPE reads no more than 0.2.
The result for CIWV reads no more than 0.2; that for MRIG, no more than 0.2; that for MAPD, no more than 0.2.
Consider DEES, for which the “one-hybrid fitness for binding parS DNA” value is no more than 0.2.
To VTLW belongs no more than 0.2.
MSHC: the “one-hybrid fitness for binding parS DNA” value is no more than 0.2.
As for LGST, the “one-hybrid fitness for binding parS DNA” value is no more than 0.2.
WCWS: the “one-hybrid fitness for binding parS DNA” value is no more than 0.2.
On to SQTI, for which the “one-hybrid fitness for binding parS DNA” value was no more than 0.2.
For QKIL, the “one-hybrid fitness for binding parS DNA” value is no more than 0.2.
Consider RRGQ, for which the “one-hybrid fitness for binding parS DNA” value was no more than 0.2.
In the case of FKLA, the “one-hybrid fitness for binding parS DNA” value was no more than 0.2.
Take QSAY: the “one-hybrid fitness for binding parS DNA” value was no more than 0.2.
With ACDG, the “one-hybrid fitness for binding parS DNA” value is no more than 0.2.
VNQA: the “one-hybrid fitness for binding parS DNA” value is no more than 0.2.
For VYGT, the “one-hybrid fitness for binding parS DNA” value was no more than 0.2.
With QSCT, the “one-hybrid fitness for binding parS DNA” value was no more than 0.2.
To ITNG belongs no more than 0.2; to WLPE, no more than 0.2.
For GCMV, the “one-hybrid fitness for binding parS DNA” value is no more than 0.2.
Consider ICSE, for which the “one-hybrid fitness for binding parS DNA” value was no more than 0.2.
As for GHFS, the “one-hybrid fitness for binding parS DNA” value is no more than 0.2.
THGG: the “one-hybrid fitness for binding parS DNA” value is no more than 0.2.
For the variant VHAY, the “one-hybrid fitness for binding parS DNA” value was no more than 0.2.
The result for SDRG reads no more than 0.2; that for GLDG, no more than 0.2; that for QATF, no more than 0.2.
Turning to PGQS, the “one-hybrid fitness for binding parS DNA” value is no more than 0.2.
To GMHE belongs no more than 0.2; to KTNM, no more than 0.2; to CRSR, no more than 0.2.
KYYR: the “one-hybrid fitness for binding parS DNA” value is no more than 0.2.
With RIHT, the “one-hybrid fitness for binding parS DNA” value came out at 0.936.
Consider NRHK, for which the “one-hybrid fitness for binding parS DNA” value was no more than 0.2.
Turning to GLVM, the “one-hybrid fitness for binding parS DNA” value is no more than 0.2.
Turning to RDNH, the “one-hybrid fitness for binding parS DNA” value is no more than 0.2.
To APNE belongs no more than 0.2.
With TATW, the “one-hybrid fitness for binding parS DNA” value was no more than 0.2.
The result for YFMC reads no more than 0.2; that for HWQL, no more than 0.2; that for EFEL, no more than 0.2.
On to SVSW, for which the “one-hybrid fitness for binding parS DNA” value was no more than 0.2.
For the variant SGCF, the “one-hybrid fitness for binding parS DNA” value was no more than 0.2.
For RDDN, the “one-hybrid fitness for binding parS DNA” value was no more than 0.2.
WQDS: the “one-hybrid fitness for binding parS DNA” value was no more than 0.2.
Regarding AQNS, the “one-hybrid fitness for binding parS DNA” value is no more than 0.2.
As for ECAF, the “one-hybrid fitness for binding parS DNA” value was no more than 0.2.
To AGQC belongs no more than 0.2.
Turning to NLTW, the “one-hybrid fitness for binding parS DNA” value was no more than 0.2.
Regarding WYSD, the “one-hybrid fitness for binding parS DNA” value was no more than 0.2.
To NSEG belongs no more than 0.2.
TRKK: the “one-hybrid fitness for binding parS DNA” value is no more than 0.2.
With HVSL, the “one-hybrid fitness for binding parS DNA” value was no more than 0.2.
For the variant VGNN, the “one-hybrid fitness for binding parS DNA” value is no more than 0.2.
For the variant RNWS, the “one-hybrid fitness for binding parS DNA” value amounted to 0.705.
As to NIDS, the “one-hybrid fitness for binding parS DNA” value was no more than 0.2.
To IFQM belongs no more than 0.2; to PTQY, no more than 0.2; to TCQV, no more than 0.2.
To RFPK belongs no more than 0.2.
For SKRD, the “one-hybrid fitness for binding parS DNA” value is no more than 0.2.
The result for VHSP reads no more than 0.2; that for GQAM, no more than 0.2; that for WHFV, no more than 0.2.
As for SPRE, the “one-hybrid fitness for binding parS DNA” value was no more than 0.2.
ENPV: the “one-hybrid fitness for binding parS DNA” value was no more than 0.2.
Take VYCG: the “one-hybrid fitness for binding parS DNA” value was no more than 0.2.
To RVVH belongs no more than 0.2.
As for RRQC, the “one-hybrid fitness for binding parS DNA” value was determined as 0.63.
For the variant PTNE, the “one-hybrid fitness for binding parS DNA” value was no more than 0.2.
On to TWRL, for which the “one-hybrid fitness for binding parS DNA” value is no more than 0.2.
Take AVGG: the “one-hybrid fitness for binding parS DNA” value was no more than 0.2.
To VCIR belongs no more than 0.2; to QGGM, no more than 0.2.
MIMW: the “one-hybrid fitness for binding parS DNA” value was no more than 0.2.
For the variant DVII, the “one-hybrid fitness for binding parS DNA” value was no more than 0.2.
For the variant CDGR, the “one-hybrid fitness for binding parS DNA” value is no more than 0.2.
For QPQC, the “one-hybrid fitness for binding parS DNA” value is no more than 0.2.
For TRFT, the “one-hybrid fitness for binding parS DNA” value was no more than 0.2.
In the case of LASM, the “one-hybrid fitness for binding parS DNA” value is no more than 0.2.
For the variant RSCE, the “one-hybrid fitness for binding parS DNA” value was no more than 0.2.
The result for ITQR reads no more than 0.2; that for PHRA, no more than 0.2.
The result for CSYR reads no more than 0.2; that for RPRM, no more than 0.2; that for LTAC, no more than 0.2.
With GYSL, the “one-hybrid fitness for binding parS DNA” value is no more than 0.2.
On to SAKG, for which the “one-hybrid fitness for binding parS DNA” value is no more than 0.2.
Regarding NPNW, the “one-hybrid fitness for binding parS DNA” value is no more than 0.2.
In the case of LHDS, the “one-hybrid fitness for binding parS DNA” value is no more than 0.2.
As to VSRS, the “one-hybrid fitness for binding parS DNA” value is no more than 0.2.
On to LYAK, for which the “one-hybrid fitness for binding parS DNA” value is no more than 0.2.
Take VLDI: the “one-hybrid fitness for binding parS DNA” value was no more than 0.2.
SKRL: the “one-hybrid fitness for binding parS DNA” value was no more than 0.2.
With ALTE, the “one-hybrid fitness for binding parS DNA” value was no more than 0.2.
Regarding NYVR, the “one-hybrid fitness for binding parS DNA” value was no more than 0.2.
The result for EPKA reads no more than 0.2; that for QERP, no more than 0.2; that for WSTT, no more than 0.2.
For QMDI, the “one-hybrid fitness for binding parS DNA” value was no more than 0.2.
As for MRNW, the “one-hybrid fitness for binding parS DNA” value was no more than 0.2.
To DTGS belongs no more than 0.2; to MNML, no more than 0.2; to AYRA, no more than 0.2.
For ATGF, the “one-hybrid fitness for binding parS DNA” value was no more than 0.2.
In the case of NLVA, the “one-hybrid fitness for binding parS DNA” value was no more than 0.2.
To TMDG belongs no more than 0.2.
For HMDC, the “one-hybrid fitness for binding parS DNA” value was no more than 0.2.
As to CEES, the “one-hybrid fitness for binding parS DNA” value is no more than 0.2.
Consider FWPV, for which the “one-hybrid fitness for binding parS DNA” value is no more than 0.2.
Regarding RSQA, the “one-hybrid fitness for binding parS DNA” value came to 0.555.
With RIAC, the “one-hybrid fitness for binding parS DNA” value was 0.973.
Regarding LRNN, the “one-hybrid fitness for binding parS DNA” value is no more than 0.2.
To VLRE belongs no more than 0.2.
With KCSC, the “one-hybrid fitness for binding parS DNA” value is no more than 0.2.
As for RSCY, the “one-hybrid fitness for binding parS DNA” value came to 0.47.
Take HTPA: the “one-hybrid fitness for binding parS DNA” value is no more than 0.2.
Consider NTSS, for which the “one-hybrid fitness for binding parS DNA” value was no more than 0.2.
For the variant PKRV, the “one-hybrid fitness for binding parS DNA” value was no more than 0.2.
As to DNGY, the “one-hybrid fitness for binding parS DNA” value is no more than 0.2.
With TVYP, the “one-hybrid fitness for binding parS DNA” value was no more than 0.2.
To GNRG belongs no more than 0.2; to TWLF, no more than 0.2; to PHMS, no more than 0.2.
Turning to HEMS, the “one-hybrid fitness for binding parS DNA” value was no more than 0.2.
To THKT belongs no more than 0.2.
To QRNQ belongs no more than 0.2.
In the case of HPWC, the “one-hybrid fitness for binding parS DNA” value is no more than 0.2.
To WAPC belongs no more than 0.2.
Regarding GEVG, the “one-hybrid fitness for binding parS DNA” value is no more than 0.2.
